# Reference: the RNAGym collection of RNA variant scans (doi:10.1093/nar/gkz1192)
# The source gives no read counts; variants with many changes may rest on few reads.
# B1: CPEB3 Ribozyme (parent)
# chain: UAACAGGGGGCCACAGCAGAAGCGUUCACGUCGCAGCCCCUGUCAGAUUCUGGUGAAUCUGCGAAUUCUGCUGUAUAUCUC
# Variants of: B1
# Assay: self-cleavage, relative activity (ratio to wild type); higher = more cleavage; in vitro, sequencing
# Summary of the method: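 Relative activity compares each variant's cleaved/total read fraction with that of the unmutated ribozyme. To get these fractions, barcoded CPEB3 ribozyme libraries from rounds of error-prone PCR were transcribed with T7 RNA polymerase for 5 hours at 37°C and then given 15 min of DNase I treatment before EDTA was added. The RNAs were reverse transcribed with template switching and sequenced on Illumina, and DNA sequencing linked barcodes to variants. A minimum of 5 reads applied, and three batches were averaged.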
row,Variant,self-cleavage
1,UAACAGGGGGCCACAGCAGAAACGUUCACGUCGCAACCCCUGUCAGAUUCUGGUGAAACUGCGGAUUCUGCUGUAUGUCUC [G22A G36A U58A A64G A77G],0.04
2,UAACAGGGGGCCACAGCAGAUGCGUUCACGACGCAGCCCCUAUCAGAUUCUGGUGAAUCUGCGAAUUCUCCUGUAUAUCUC [A21U U31A G42A G70C],0.03
3,UAACAGGGGGCCACAGCAGAAACGUUCACCUCGCAGCCCCUGUCAGAUUCUGGUGAAUCAGCGGAUUUUGCUGUAUAUCUC [G22A G30C U60A A64G C68U],0.07
4,UAACAGGGGGCCACAGCAGAAACGCUCACGUCGCAGCCCCUGUCAGAUUCUGGUGAAUCUGCGAAUUGUGCUGUAUAUCUC [G22A U25C C68G],0.14
5,UAACAGGGGGCCACAGCAGAUGCGUUCACGUCGCAGCCCCUGUCAGAUUCUGGUGAAUCUGCGAAUUCAGCUGAAUAUCUC [A21U U69A U74A],0.12
6,UAACAGGGGGCCACAGCAGAUGCGUUCACGUCGCAGCCCCAGUCAGAUUCUGGUGAAACCGCGAAUUCUGCUGAAUAUCUC [A21U U41A U58A U60C U74A],0.08
7,UAACAGGGGGCCACAGCAGAAACGUUCACGUCGCAGCCCCUGUCAGAUUCUGGUGGGUCCGCGAAUUCCGCCGUAUAUCAC [G22A A56G A57G U60C U69C U72C U80A],0
8,UAACAGGGGGCCACAGCAGAUGCGUUCACGUCGCAGCCCCUGCCAGAUUCUGGUGAAUCUGCGAAUUCUGCUGUAUAACCC [A21U U43C U78A U80C],0.19
9,UAACAGGGGGCCACAGCAGAUGCGUUCACGUCGCAGCCCCCGUCAGACUCUGGUGAAUCUGCGAAUUCUGCUGUAUGUCUC [A21U U41C U48C A77G],0.09
10,UAACAGGGGGCCACAGCAGAUGCGUUCACGUCGCAGCCCCUGUCAGAUUCUGGUGAAGCUGCGAAUCCUGCUGAAUACCUC [A21U U58G U67C U74A U78C],0.05
11,UAACAGGGGGCCACAGCAGAUGCGUUCACGUCGCAGCCCCUGUCAGAUCCUGGUGAAUCUGCGAAAUCUGCUGUAUAUCUC [A21U U49C U66A],0.34
12,UAACAGGGGGCCACAGCAGAAACGUUCACGUCGCGGCCCCUGCCAGAUUCUGGUGAAUCUGCGAAUUCUGCUGUAUAUCUC [G22A A35G U43C],0.47
13,UAACAGGGGGCCACAGCAGAUGCGUUCACGUCGCAGCCCCCGUCAGGUCCUGGAGGAUCUGCGAAUUCUGCUGCAUAUCUC [A21U U41C A47G U49C U54A A56G U74C],0.36
14,UAACAGGGGGCCACAGCAGAAACGUUCACGUCGCAGCCCCUGUCAGGCCCUGGUGAAUCUGCGAAUUCAGCUGUAUAUCUC [G22A A47G U48C U49C U69A],0.16
15,UAACAGGGGGCCACAGCAGAUGCGUUCACGUCGCAGCCCCUGUCAGAUUCUGGUGAAUCUGCGAAUUCUGCCGUACAUCUC [A21U U72C U76C],0.47
16,UAACAGGGGGCCACAGCAGAAACAUUCACGUCGCAGCCCCUGUCAGAUUCUGGUGAAUCUGCGAAUUCUGCUGCAUAUCUC [G22A G24A U74C],0.12
17,UAACAGGGGGCCACAGCAGAUGCGUUCACGCCGCAGCCCCUGUCAAAUUCUGGAGAAUCUGCGAACUCUGCUGUAUAUCUC [A21U U31C G46A U54A U66C],0.06

row,Variant,self-cleavage
1,UAACAGGGGGCCACAGCAGAUGCGUUCACGUCGCAGCCCCUGUCAGAUUCUGGUGAACCUGCGAAUUCUGCUGUAUAUCAC [A21U U58C U80A],0.26
2,UAACAGGGGGCCACAGCAGAUGCGUCCACGUCGCAGCCCCUGUCAGAUUCCGGUGAAUCUGCGAAUUCCGCUGUAUAUCUC [A21U U26C U51C U69C],0.06
3,UAACAGGGGGCCACAGCAGAUGCGUCCACGUCGCAGCCCCUGCCAGAUUCCGGUGAAUCUGCGAAUCCUGCCGUAUAUCCC [A21U U26C U43C U51C U67C U72C U80C],0.06
4,UAACAGGGGGCCACAGCAGAUGCGUUCACGUCGCAGCCCCUGUCAGAUCCUGGUGAAUCUGCGAAUACAGCUGUAUAUCUC [A21U U49C U67A U69A],0.05
5,UAACAGGGGGCCACAGCAGAUGCGUUCACGUCGCAGCCCCAGUCAGAUUCUGGUGAUUCUGCGAAUUCUGCUGCAUAUCUC [A21U U41A A57U U74C],0.3
6,UAACAGGGGGCCACAGCAGAUGCGUUCACGUCGCAGCCCCUGCCAGGUUCUGGUGAAUCUGCGAAUUCUGCUGUAUAUCUC [A21U U43C A47G],0.11
7,UAACAGGGGGCCACAGCAGAUGCGUACACGUCGCAGCCCCUGUCAGAUUCUGGUGAAACUGCGAAUUCUGCUGUAUAUCUC [A21U U26A U58A],0.42
8,UAACAGGGGGCCACAGCAGAAACGUUCUCGUUGCAGCCCCUGUCAGAUUCUGGUGAAUCUGCGAAUUCUUCUGUAUAUAUC [G22A A28U C32U G70U C79A],0.07
9,UAACAGGGGGCCACAGCAGAUGCGUUCACGUCGCAGCCCCUGCCAGAUUCUGGUGAAUCUGCGAAUUCUGCUGUAUUUCAC [A21U U43C A77U U80A],0.14
10,UAACAGGGGGCCACAGCAGAUGCGUUCACGUCGCAGCCCCCGUCAGAUUCCGGUGAAUCUGCGAAUGCUGCUGUAUAUCUC [A21U U41C U51C U67G],0.15
11,UAACAGGGGGCCACAGCAGAAACGAUCACGGCGCAGCCCCAGUCAGAUUCUGGUGAAUCAGCGAAUUCUGCUGUAUAUCUC [G22A U25A U31G U41A U60A],0.1
12,UAACAGGGGGCCACAGCAGAUGCGUUCACGUCGCAGCCCCUGUCAGAUUCUGGUGAAUCUGCGAAUUCGGCUGUAUGUCUC [A21U U69G A77G],0.21
13,UAACAGGGGGCCACAGCAGAUGCGUUCACGUCGCAGCCCCUGUCAGAUUCAGGUGAAUCUGCGAAUUCUGCCGUAUAUCUC [A21U U51A U72C],0.51
14,UAACAGGGGGCCACAGCAGAUGCGUUCACGUCGCAGCCCCUGUCAGAUUCUGGUGAAUCUGCGAAUUCUGCCGUAUAUCUA [A21U U72C C81A],0.76
15,UAACAGGGGGCCACAGCAGAUGCGUCCACGUCGCAGCCCCUGUCAGAUUCUGGUGGAUCUGCGAAUUAUGCUGUGUAUCUC [A21U U26C A56G C68A A75G],0.05
16,UAACAGGGGGCCACAGCAGAUGCGUUCACGUCGCAGCCCCUGACAGAUUCUGGUGAAUCUGCGAAUUCUGCAGUAUAUCUC [A21U U43A U72A],0.4
17,UAACAGGGGGCCACAGCAGAAACGUCCGCGUCGCAGCCCCUGCCGGAUUCUGGUGGAUCUGCGAAUUCUGCUGUAUAUCUC [G22A U26C A28G U43C A45G A56G],0.04
